Results published in PubChem BioAssay AID588591 (National Center for Advancing Translational Sciences (NCATS), 2011).
The campaign covered roughly 390,000 compounds. About 4,700 (1.2%) were called active. The inconclusive results got no clear call from the source; some entries with a clear call stand among them for comparison. Calls follow the shape of the dose curve; as a rule, active = well fitted inhibition curve with a large enough effect; inconclusive = small, poorly fitted or top-dose-only effect, or another doubt; inactive = no such curve, though single readings can be large or run the other way. Where the call is inconclusive, the potency comes from a doubtful curve fit.

molecular target: DNA polymerase eta (Homo sapiens) (UniProt Q9Y253); experiment: qHTS for Inhibitors of Polymerase Eta; conditions: recombinant Pol eta, fluorescent DNA replication assay; series mostly up to 114 µM; activity change, negative = inhibition: at the top concentration
Outline: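 Pol eta at 10 nM preincubated with compounds 15 min at room temperature; reaction started with fluorescent substrate (50 nM final) and read kinetically at 0 and 10 min.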
% is scaled to controls: 0 for no effect and ±100 for the full control effect; potency is read from the fitted curve at half-maximal effect; tags tell the direction and shape of the fitted curve.

Sequence of UniProt Q9Y253 (Q9Y253 whole entry, looked up): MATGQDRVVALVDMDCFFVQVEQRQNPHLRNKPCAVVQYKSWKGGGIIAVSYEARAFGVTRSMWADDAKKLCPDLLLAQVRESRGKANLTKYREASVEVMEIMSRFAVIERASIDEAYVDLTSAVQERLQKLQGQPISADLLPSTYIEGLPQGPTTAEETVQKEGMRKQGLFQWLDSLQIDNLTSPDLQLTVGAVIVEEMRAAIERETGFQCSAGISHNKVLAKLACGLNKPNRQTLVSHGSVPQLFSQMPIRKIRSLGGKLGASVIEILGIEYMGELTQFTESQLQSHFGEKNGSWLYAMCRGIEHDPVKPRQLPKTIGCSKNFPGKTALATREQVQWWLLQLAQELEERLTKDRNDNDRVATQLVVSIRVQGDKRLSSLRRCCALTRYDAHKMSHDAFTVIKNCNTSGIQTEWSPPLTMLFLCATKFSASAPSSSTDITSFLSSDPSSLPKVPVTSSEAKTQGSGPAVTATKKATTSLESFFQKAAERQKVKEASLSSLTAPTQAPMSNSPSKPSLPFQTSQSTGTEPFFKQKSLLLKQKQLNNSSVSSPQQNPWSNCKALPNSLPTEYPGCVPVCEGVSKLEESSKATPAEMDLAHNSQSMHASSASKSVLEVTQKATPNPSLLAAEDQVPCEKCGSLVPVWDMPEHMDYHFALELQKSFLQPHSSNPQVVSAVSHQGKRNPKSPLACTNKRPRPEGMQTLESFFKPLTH

SMILES | Potency | activity change, negative = inhibition
COc1ccc(N=Cc2cc(Cc3ccccc3Cl)cc([N+](=O)[O-])c2O)cc1OC | active: 28.2 µM | –
O=C(Nc1ccccn1)c1cccc(S(=O)(=O)N2CCCc3ccccc32)c1 | inconclusive: 89.1 µM [inhibitor, single point] | –
CC(C)CC(=O)Nc1ncc([N+](=O)[O-])s1 | inconclusive: 79.4 µM [inhibitor, partial curve] | –
CC1CCc2nn(CC(=O)NCc3ccc(F)cc3)cc2C1 (stereo not drawn) | inconclusive: 100 µM [inhibitor, partial curve, poor fit] | –
CCNC(=O)CCSc1nnc(-c2ccc(O)cc2)o1 | – | inactive: -13%
COc1ccc(C2=CC3=C(Br)C(=O)C(C)(OC(=O)c4cccs4)C(=O)C3=CO2)cc1 (stereo not drawn) | active: 39.8 µM | –
O=C1c2cc(Br)ccc2N(Cc2ccc(Br)cc2)S(=O)(=O)C1c1cc(Cl)c(Cl)cc1[N+](=O)[O-] (stereo not drawn) | active: 22.4 µM | –
CCN1C(=O)/C(=C\c2ccc(-c3ccc([N+](=O)[O-])cc3OC)o2)SC1=Nc1cccc(C(=O)O)c1 | active: 28.2 µM | –
CN(C)/N=C/c1ccc(Sc2ccc([N+](=O)[O-])cc2[N+](=O)[O-])o1 | inconclusive: 22.4 µM [inhibitor, partial curve, poor fit] | –
Cc1ccc(-c2cc3nc(-c4ccccc4)cc(NCCCO)n3n2)cc1 | inconclusive: 79.4 µM [inhibitor, partial curve, poor fit] | –
Cc1cc(C)cc(NC(=O)Cn2nnc(C(=O)NCc3ccco3)c2N)c1 | inconclusive: 79.4 µM [inhibitor, partial curve, poor fit] | –
COc1ccc(NC(=O)c2ccccc2NS(=O)(=O)c2ccc(CNC(C)=O)cc2)c(OC)c1 | inconclusive: 89.1 µM [inhibitor, single point] | –
Cc1cccc(NC(=O)CNC(=O)Cn2ncc(Cl)c(Cl)c2=O)c1C | active: 3.98 µM | –
O=C(NC(=S)Nc1ccccc1Cl)c1ccco1 | – | inactive: 2.76%
Cc1nc(SCC(=O)N2CCN(c3ccccc3)CC2)c2oc3ccccc3c2n1 | inconclusive: 28.2 µM [inhibitor, partial curve, poor fit] | –
COc1ccccc1N(CC(=O)N(CC(C)C)CC(C)C)S(=O)(=O)c1cccs1 | inconclusive: 89.1 µM [inhibitor, partial curve, poor fit] | –
Cc1ccc(C(NC(=O)N2CCCCC2)=C(Cl)Cl)cc1F | inconclusive: 56.2 µM [inhibitor, partial curve, poor fit] | –
COC(=O)c1c[nH]c2c1-c1cc(C(=O)OCc3ccccc3)n(S(=O)(=O)c3ccc(C)cc3)c1C(=O)C2=O | inconclusive: 25.1 µM [inhibitor, partial curve, poor fit] | –
CC1CC(C)CN(S(=O)(=O)c2ccc(NC(=O)CN3CCCCCC3)cc2)C1 (stereo not drawn) | inconclusive: 14.1 µM [inhibitor, partial curve, poor fit] | –
Clc1ccc(-c2n[nH]c3c2CCCC3)cc1 | inconclusive: 89.1 µM [inhibitor, partial curve, poor fit] | –
CCn1c2ccccc2c2cc(/C=N/n3cn[nH]c3=S)ccc21 | – | inactive: -0.7%
COC(=O)c1sc(NC(=O)COc2ccccc2)nc1C | inconclusive: 28.2 µM [inhibitor, partial curve, poor fit] | –
CC(C)c1ccc(C(=O)OC2CCOC2=O)cc1 (stereo not drawn) | inconclusive: 56.2 µM [inhibitor, partial curve, poor fit] | –

SMILES | Potency | activity change, negative = inhibition
CCOC(=O)c1cccc(NC(=O)C2CCN(c3nnc(C)c4c(C)n(-c5ccccc5)nc34)CC2)c1 | – | inactive: -19.7%
Cc1ccc(/C=N/NC(=O)c2ccc3ccccc3c2)s1 | inconclusive: 22.4 µM [inhibitor, partial curve, poor fit] | –
O=C(O)c1ccc(Cn2nnc3sc4c(c3c2=O)CCCC4)cc1 | active: 20 µM | –
Cc1ccccc1C(=O)Nc1nnc(S(=O)(=O)N2CCCc3ccccc32)s1 | inconclusive: 79.4 µM [inhibitor, partial curve] | –
O=C(Nc1ccccn1)C1COc2ccccc2O1 (stereo not drawn) | – | inactive: 3.92%
CCN(CC)S(=O)(=O)c1ccc2c(c1)N(CC(=O)N1CCCC1)C(=O)CO2 | – | inactive: -3.58%
CC1=CN2C(=N)/C(=C/c3ccco3)C(=O)N=C2S1 | inconclusive: 20 µM [inhibitor, partial curve] | –
CCOC(=O)C1=C(c2ccc(OC)cc2)C(=O)c2ccccc2C1=O | active: 89.1 µM | –
c1coc(-c2nn3c(-c4ccco4)nnc3s2)c1 | inconclusive: 11.2 µM [inhibitor, partial curve, poor fit] | –
CN(C)S(=O)(=O)c1ccc(C(=O)NCc2ccco2)cc1 | – | inactive: -12.5%
Cc1cc(NC(=O)COC(=O)c2oc3c(ccc4ccccc43)c2C)no1 | inconclusive: 3.16 µM [inhibitor, full curve, poor fit] | –
CN1[C@@H]2CC[C@H]1CC(OC(=O)c1c[nH]c3ccccc13)C2 (stereo partly drawn) | – | inactive: -6.45%
Cc1cc(C)cc(NC(=O)C2CCN(S(=O)(=O)c3c(C)n[nH]c3C)CC2)c1 | inconclusive: 79.4 µM [inhibitor, partial curve] | –
COc1ccc(NC(=O)CC2C(=O)N(c3ccc(Cl)cc3)C(=S)N2NC(=O)c2cccc(F)c2)cc1 (stereo not drawn) | inconclusive: 28.2 µM [inhibitor, partial curve, poor fit] | –
CC(=O)c1cccc(-n2c(CCC(=O)O)ccc2-c2cccs2)c1 | inconclusive: 70.8 µM [inhibitor, partial curve] | –
COc1ccc2c(c1)oc(=O)c1c3ccccc3[nH]c21 | – | inactive: -11.7%
Cc1cccc(CCn2c(=O)c3ccccc3n(Cc3cccc(F)c3)c2=O)c1 | – | inactive: -9.11%
O=S(=O)(Nc1cccc(-c2ccc(N3CCCCC3)nn2)c1)c1cccs1 | – | inactive: -9.68%
Cc1ccccc1NS(=O)(=O)c1ccc2[nH]cc(C(=O)N3CCCC3)c(=O)c2c1 | active: 89.1 µM | –
CCCn1c(CCC(=O)O)ccc1-c1ccccc1 | – | inactive: -19.4%
CCOC(=O)c1ccc(NC(=O)Nc2ccc3c(c2)OCCO3)cc1 | inconclusive: 39.8 µM [inhibitor, partial curve, poor fit] | –
CCOC(=O)c1c(NC(=O)c2ccoc2C)sc(C(=O)N(C)C)c1C | inconclusive: 31.6 µM [inhibitor, partial curve, poor fit] | –
Cn1c(C(=O)NCc2ccc(F)cc2)cc2c(=O)n(C)c3ccccc3c21 | – | inactive: -11.7%

SMILES | Potency | activity change, negative = inhibition
O=C(CSc1nc2nn(-c3ccccc3)c(=O)c-2c2n1CCCCC2)c1ccc(O)c(O)c1 | active: 1.78 µM | –
C#CCNC(=O)C1=C[C@H](c2ccc3c(c2)OCO3)C[C@H](OCc2ccc(CO)cc2)O1 | – | inactive: -6.75%
CCC(=O)Nc1ccc(C(=O)Nc2ccc3c(c2)C(=O)N(CC2CCCO2)C3=O)cc1 (stereo not drawn) | inconclusive: 0.398 µM [inhibitor, partial curve, poor fit] | –
CC(=O)N1CCC(N(Cc2ccco2)C(=O)Nc2cccc(C)c2)CC1 | – | inactive: -2.47%
COc1cc(/C=C(\C#N)C(=O)c2c(C)[nH]c3ccccc23)cc(OC)c1OC | inconclusive: 0.631 µM [inhibitor, full curve, poor fit] | –
O=C(c1cccs1)N1CCN(Cc2cccnc2)CC1 | active: 22.4 µM | –
Cn1cc([N+](=O)[O-])c(C(=O)Nc2ccc(-c3nc4ccccc4o3)cc2)n1 | inconclusive: 17.8 µM [inhibitor, full curve, poor fit] | –
CCOc1ccc(NC(=O)CCC(=O)N/N=C(\C)c2cccs2)cc1 | – | inactive: -5.52%
Cc1c(C)c2ccc(OCC(=O)N[C@@H](Cc3ccccc3)C(=O)O)cc2oc1=O | inconclusive: 56.2 µM [inhibitor, partial curve, poor fit] | –
C/C=C/CSc1nc2c(c(=O)[nH]c(=O)n2C)n1CCC | – | inactive: -1.48%
Cc1occc1-c1nnc(SCC(=O)c2cc3ccccc3oc2=O)o1 | inconclusive: 14.1 µM [inhibitor, partial curve, poor fit] | –
CC1(C)CC(=O)C(N=Nc2c(Cl)cc(Cl)cc2Cl)=C(O)C1 | inconclusive: 89.1 µM [inhibitor, partial curve, poor fit] | –
Cc1[nH]c(-c2ccc(F)cc2)cc1C(=O)N1CCN(c2ccccc2)CC1 | inconclusive: 79.4 µM [inhibitor, partial curve, poor fit] | –
Brc1cc2c(cc1COc1ccc(-c3nn[nH]n3)cc1)OCO2 | inconclusive: 28.2 µM [inhibitor, single point] | –
COc1ccc(-c2cc(N3CCCC3)n3ncnc3n2)cc1 | inconclusive: 35.5 µM [inhibitor, single point] | –
COc1cc(/C=C/c2nc(C#N)c(NC3CCCCC3)o2)cc(OC)c1OC | inconclusive: 56.2 µM [inhibitor, partial curve, poor fit] | –
O=C(NN1C(=O)C2C(c3ccccc3)C=CC(c3ccccc3)C2C1=O)c1ccccc1 (stereo not drawn) | inconclusive: 70.8 µM [inhibitor, partial curve, poor fit] | –
COc1cccc(NC(=O)COC(=O)C2CC3CCCC(C2)C3=O)c1 (stereo not drawn) | – | inactive: -3.44%
COc1ccccc1N1C(=O)CC(Nc2ccc(N3CCOCC3)cc2)C1=O (stereo not drawn) | inconclusive: 14.1 µM [inhibitor, partial curve, poor fit] | –
Cc1ccc(Cl)cc1NC(=O)Cn1c(=O)c(CNc2ccccc2)cc2cc3c(cc21)OCCO3 | inconclusive: 100 µM [inhibitor, single point] | –
CCOC(=O)C1CCCN(C2=NC(=O)/C(=C/c3ccc(OC)cc3)S2)C1 (stereo not drawn) | – | inactive: -8.7%
COc1ccc(C2c3c(-c4ccccc4O)n[nH]c3C(=O)N2Cc2ccco2)cc1 (stereo not drawn) | inconclusive: 79.4 µM [inhibitor, partial curve, poor fit] | –
